Experimental data: the supplement of paper PMC8728848
The list shows a part of the results.

Key:
Assay in all cases: glycan array binding signal (z-score within array); higher = stronger binding
Conditions in all cases: glycan notation: IUPAC condensed, linker removed
[1] = molecular target: Neu5Ac(a2-3)Gal(b1-4)GlcNAc(b1-3)Gal(b1-4)GlcNAc
Summary of the method: (§1)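 The Consortium for Functional Glycomics database supplied 3228 glycan arrays, of which those lacking an available protein sequence were dropped. The binding signal, a within-array Z-score, was averaged across arrays of the same protein sequence and across linkers. Negative scores can be read as non-binding.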

[2] = molecular target: Neu5Ac(a2-3)Gal(b1-4)GlcNAc(b1-3)Gal(b1-4)GlcNAc(b1-2)Man(a1-3)[Neu5Ac(a2-3)Gal(b1-4)GlcNAc(b1-3)Gal(b1-4)GlcNAc(b1-2)Man(a1-6)]Man(b1-4)GlcNAc(b1-4)GlcNAc
Summary of the method: as §1

[3] = molecular target: Neu5Ac(a2-3)Gal(b1-4)GlcNAc(b1-3)Gal(b1-4)GlcNAc(b1-3)Gal(b1-4)GlcNAc
Summary of the method: as §1

[4] = molecular target: Neu5Ac(a2-3)Gal(b1-4)GlcNAc(b1-3)Gal(b1-4)GlcNAc(b1-3)Gal(b1-4)GlcNAc(b1-2)Man(a1-3)[Neu5Ac(a2-3)Gal(b1-4)GlcNAc(b1-3)Gal(b1-4)GlcNAc(b1-3)Gal(b1-4)GlcNAc(b1-2)Man(a1-6)]GalNAc
Summary of the method: as §1

[5] = molecular target: Neu5Ac(a2-3)Gal(b1-4)GlcNAc(b1-3)Gal(b1-4)GlcNAc(b1-3)GalNAc
Summary of the method: as §1

[6] = molecular target: Neu5Ac(a2-3)Gal(b1-4)GlcNAc(b1-3)Gal(b1-4)GlcNAc(b1-3)[Neu5Ac(a2-3)Gal(b1-4)GlcNAc(b1-3)Gal(b1-4)GlcNAc(b1-6)]GalNAc
Summary of the method: as §1

[7] = molecular target: Neu5Ac(a2-3)Gal(b1-4)GlcNAc(b1-3)Gal(b1-4)GlcNAc(b1-6)[Gal(b1-3)]GalNAc
Summary of the method: as §1

[8] = molecular target: Neu5Ac(a2-3)Gal(b1-4)GlcNAc(b1-3)Gal(b1-4)[Fuc(a1-3)]GlcNAc
Summary of the method: as §1

[9] = molecular target: Neu5Ac(a2-3)Gal(b1-4)GlcNAc(b1-3)GalNAc
Summary of the method: as §1

[10] = molecular target: Neu5Ac(a2-3)Gal(b1-4)GlcNAc(b1-3)[Neu5Ac(a2-3)Gal(b1-4)GlcNAc(b1-6)]GalNAc
Summary of the method: as §1

[11] = molecular target: Neu5Ac(a2-3)Gal(b1-4)GlcNAc(b1-6)GalNAc
Summary of the method: as §1

[12] = molecular target: Neu5Ac(a2-3)Gal(b1-4)GlcNAc(b1-6)GalNAc(a1-3)Gal(b1-4)Glc
Summary of the method: as §1

[13] = molecular target: Neu5Ac(a2-3)Gal(b1-4)GlcNAc(b1-6)[Gal(b1-3)]GalNAc
Summary of the method: as §1

[14] = molecular target: Neu5Ac(a2-3)Gal(b1-4)GlcNAc(b1-6)[Neu5Ac(a2-3)Gal(b1-3)]GalNAc
Summary of the method: as §1

[15] = molecular target: Neu5Ac(a2-3)Gal(b1-4)GlcNAc6S
Summary of the method: as §1

[16] = molecular target: Neu5Ac(a2-3)Gal(b1-4)GlcNAc6S(b1-3)Gal6S(b1-3)GlcNAc6S
Summary of the method: as §1

[17] = molecular target: Neu5Ac(a2-3)Gal(b1-4)[3dFuc(a1-3)]GlcNAc(b1-3)Gal
Summary of the method: as §1

[18] = molecular target: Neu5Ac(a2-3)Gal(b1-4)[4dFuc(a1-3)]GlcNAc(b1-3)Gal
Summary of the method: as §1

[19] = molecular target: Neu5Ac(a2-3)Gal(b1-4)[6dTal(a1-3)]GlcNAc(b1-3)Gal
Summary of the method: as §1

[20] = molecular target: Neu5Ac(a2-3)Gal(b1-4)[Fuc(a1-3)]Glc
Summary of the method: as §1

[21] = molecular target: Neu5Ac(a2-3)Gal(b1-4)[Fuc(a1-3)]GlcNAc
Summary of the method: as §1

[22] = molecular target: Neu5Ac(a2-3)Gal(b1-4)[Fuc(a1-3)]GlcNAc(b1-2)Man
Summary of the method: as §1

[23] = molecular target: Neu5Ac(a2-3)Gal(b1-4)[Fuc(a1-3)]GlcNAc(b1-3)Gal
Summary of the method: as §1

[24] = molecular target: Neu5Ac(a2-3)Gal(b1-4)[Fuc(a1-3)]GlcNAc(b1-3)Gal(b1-4)Glc
Summary of the method: as §1

[25] = molecular target: Neu5Ac(a2-3)Gal(b1-4)[Fuc(a1-3)]GlcNAc(b1-3)Gal(b1-4)GlcNAc
Summary of the method: as §1

[26] = molecular target: Neu5Ac(a2-3)Gal(b1-4)[Fuc(a1-3)]GlcNAc(b1-3)Gal(b1-4)[Fuc(a1-3)]GlcNAc(b1-3)Gal(b1-4)Glc
Summary of the method: as §1

[27] = molecular target: Neu5Ac(a2-3)Gal(b1-4)[Fuc(a1-3)]GlcNAc(b1-3)Gal(b1-4)[Fuc(a1-3)]GlcNAc(b1-3)Gal(b1-4)[Fuc(a1-3)]GlcNAc
Summary of the method: as §1

[28] = molecular target: Neu5Ac(a2-3)Gal(b1-4)[Fuc(a1-3)]GlcNAc(b1-3)GalNAc
Summary of the method: as §1

[29] = molecular target: Neu5Ac(a2-3)Gal(b1-4)[Fuc(a1-3)]GlcNAc(b1-4)GalNAc(b1-3)Gal(b1-4)Glc
Summary of the method: as §1

[30] = molecular target: Neu5Ac(a2-3)Gal(b1-4)[Fuc(a1-3)]GlcNAc(b1-6)Gal(b1-4)Glc
Summary of the method: as §1

[31] = molecular target: Neu5Ac(a2-3)Gal(b1-4)[Fuc(a1-3)]GlcNAc(b1-6)[Gal(b1-3)]GalNAc
Summary of the method: as §1

[32] = molecular target: Neu5Ac(a2-3)Gal(b1-4)[Fuc(a1-3)]GlcNAc(b1-6)[Neu5Ac(a2-3)Gal(b1-3)]GalNAc
Summary of the method: as §1

[33] = molecular target: Neu5Ac(a2-3)Gal(b1-4)[Fuc(a1-3)]GlcNAc6S
Summary of the method: as §1

[34] = molecular target: Neu5Ac(a2-3)Gal(b1-4)[Fuc(a1-3)]GlcNAc6S(b1-3)Gal(b1-4)Glc
Summary of the method: as §1

[35] = molecular target: Neu5Ac(a2-3)Gal(b1-4)[Fuc2Me(a1-3)]GlcNAc(b1-3)Gal
Summary of the method: as §1

[36] = molecular target: Neu5Ac(a2-3)Gal(b1-4)[Qui(a1-3)]GlcNAc(b1-3)Gal
Summary of the method: as §1

[37] = molecular target: Neu5Ac(a2-3)Gal(b1-4)[Rha(a1-3)]GlcNAc(b1-3)Gal
Summary of the method: as §1

[38] = molecular target: Neu5Ac(a2-3)Gal3S
Summary of the method: as §1

[39] = molecular target: Neu5Ac(a2-3)Gal6S(b1-4)GlcNAc
Summary of the method: as §1

[40] = molecular target: Neu5Ac(a2-3)Gal6S(b1-4)[Fuc(a1-3)]GlcNAc
Summary of the method: as §1

[41] = molecular target: Neu5Ac(a2-3)Gal6S(b1-4)[Fuc(a1-3)]GlcNAc(b1-3)Gal(b1-4)Glc
Summary of the method: as §1

[42] = molecular target: Neu5Ac(a2-3)Gal6S(b1-4)[Fuc(a1-3)]GlcNAc6S(b1-3)Gal(b1-4)Glc
Summary of the method: as §1

[43] = molecular target: Neu5Ac(a2-3)GalNAc
Summary of the method: as §1

[44] = molecular target: Neu5Ac(a2-3)GalNAc(b1-4)GlcNAc
Summary of the method: as §1

[45] = molecular target: Neu5Ac(a2-3)GalNBz(b1-4)GlcNAc
Summary of the method: as §1

B1: CLEC5A (Homo sapiens), Q9NY25 (protein)
chain: MNWHMIISGLIVVVLKVVGMTLFLLYFPQIFNKSNDGFTTTRSYGTVSQIFGSSSPSPNGFITTRSYGTVCPKDWEFYQARCFFLSTSESSWNESRDFCKGKGSTLAIVNTPEKLKFLQDITDAEKYFIGLIYHREEKRWRWINNSVFNGNVTNQNQNFNCATIGLTKTFDAASCDISYRRICEKNAK
Which results are given for B1?
glycan array binding signal (z-score) [1]: -0.395; glycan array binding signal (z-score) [2]: -0.094; glycan array binding signal (z-score) [3]: -0.3; glycan array binding signal (z-score) [4]: 0.036; glycan array binding signal (z-score) [5]: -0.176; glycan array binding signal (z-score) [6]: -0.109; glycan array binding signal (z-score) [7]: -0.156; glycan array binding signal (z-score) [8]: 0.024; glycan array binding signal (z-score) [9]: 0.042; glycan array binding signal (z-score) [10]: -0.183; glycan array binding signal (z-score) [11]: 0.007; glycan array binding signal (z-score) [12]: -0.32; glycan array binding signal (z-score) [13]: -0.337; glycan array binding signal (z-score) [14]: -0.122; glycan array binding signal (z-score) [15]: -0.182; glycan array binding signal (z-score) [16]: -0.32; glycan array binding signal (z-score) [17]: -0.32; glycan array binding signal (z-score) [18]: 1.51; glycan array binding signal (z-score) [19]: 1.13; glycan array binding signal (z-score) [20]: 0.21; glycan array binding signal (z-score) [21]: -0.2; glycan array binding signal (z-score) [22]: -0.11; glycan array binding signal (z-score) [23]: -0.337; glycan array binding signal (z-score) [24]: 0.114; glycan array binding signal (z-score) [25]: 0.317; glycan array binding signal (z-score) [26]: -0.32; glycan array binding signal (z-score) [27]: -0.471; glycan array binding signal (z-score) [28]: 1.67; glycan array binding signal (z-score) [29]: -0.32; glycan array binding signal (z-score) [30]: -0.32; glycan array binding signal (z-score) [31]: 0.698; glycan array binding signal (z-score) [32]: 0.212; glycan array binding signal (z-score) [33]: -0.319; glycan array binding signal (z-score) [34]: -0.32; glycan array binding signal (z-score) [35]: 0.548; glycan array binding signal (z-score) [36]: -0.32; glycan array binding signal (z-score) [37]: -0.32; glycan array binding signal (z-score) [38]: -0.32; glycan array binding signal (z-score) [39]: -0.394; glycan array binding signal (z-score) [40]: 0.366; glycan array binding signal (z-score) [41]: -0.32; glycan array binding signal (z-score) [42]: -0.32; glycan array binding signal (z-score) [43]: -0.191; glycan array binding signal (z-score) [44]: -0.212; glycan array binding signal (z-score) [45]: -0.32
